# Laboratory results from the supplement of paper PMC3334620.
# Whole data set: some 33,000 sequences, median “E-score (-0.5 to 0.5)” near -0.041, cut for the highest 2% near 0.37. The list shows a part of the results.
# Molecular target: T1, Ecm22 (UniProt Q05958)
# T1 sequence: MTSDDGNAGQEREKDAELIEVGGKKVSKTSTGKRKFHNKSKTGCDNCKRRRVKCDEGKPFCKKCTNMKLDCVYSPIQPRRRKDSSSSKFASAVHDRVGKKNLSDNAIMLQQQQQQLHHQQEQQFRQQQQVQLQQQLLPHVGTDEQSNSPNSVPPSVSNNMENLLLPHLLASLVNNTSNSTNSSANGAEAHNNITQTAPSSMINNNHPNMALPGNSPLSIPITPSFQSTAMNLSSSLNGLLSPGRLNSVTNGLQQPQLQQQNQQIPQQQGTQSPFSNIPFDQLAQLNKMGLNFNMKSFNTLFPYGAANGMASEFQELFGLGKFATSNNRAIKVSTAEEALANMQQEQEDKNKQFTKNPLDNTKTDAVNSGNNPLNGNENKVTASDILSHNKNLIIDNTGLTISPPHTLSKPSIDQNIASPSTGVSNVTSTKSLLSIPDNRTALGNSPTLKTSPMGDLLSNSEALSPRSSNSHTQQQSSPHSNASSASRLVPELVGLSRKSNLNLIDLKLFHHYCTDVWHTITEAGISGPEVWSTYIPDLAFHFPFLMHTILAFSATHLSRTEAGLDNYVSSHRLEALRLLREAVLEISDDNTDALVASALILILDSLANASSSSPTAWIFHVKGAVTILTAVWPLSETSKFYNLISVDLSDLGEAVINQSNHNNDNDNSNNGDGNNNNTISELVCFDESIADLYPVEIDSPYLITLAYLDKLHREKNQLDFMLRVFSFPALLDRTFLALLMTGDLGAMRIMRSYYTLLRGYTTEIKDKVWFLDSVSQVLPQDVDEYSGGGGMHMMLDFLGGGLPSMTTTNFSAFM
# Assay: PBM E-score (8-mer binding enrichment) (E-score (-0.5 to 0.5)); higher = stronger / more preferred TF binding; most listed sequences are background and not binding sites
# Settings: protein concentration: 200 nM; construct: GST-full length
# Procedure, shortened: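 Yeast transcription factors carrying a GST tag, as full-length proteins or DNA-binding domains, were produced by PURExpress in vitro transcription/translation. About 100-200 nM protein was applied to universal all-10-mer Agilent arrays, double-stranded by primer extension on fresh or once-stripped slides. Bound protein was detected with fluorescent anti-GST, and scans were normalised with masliner. The Universal PBM Analysis Suite gave each ungapped eight-base word, pooled with its reverse complement, an E-score, a modified Wilcoxon-Mann-Whitney statistic.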
row,Sequence,PBM E-score
1,TACTTCAA,-0.0609
2,CTACTGAA,-0.155
3,CCTACCTC,-0.0998
4,GCGTTGCA,-0.066
5,AAAGCCTG,-0.228
6,TAGGCCTA,-0.1
7,GCCTCGAA,0.0731
8,ATAGGGAC,-0.18
9,CTGAATTC,-0.173
10,CCTAGAAG,-0.187
11,ACTCTGGA,0.0205
12,AGGCTTCA,-0.158
13,ATGTTCCA,-0.0643
14,ACTGGAGG,-0.275
15,GCCGCGCC,-0.236
16,GCTACCAA,-0.0916
17,AGATAGTG,0.0744
18,CCAGTCTC,-0.197
19,GCCAAGCC,-0.146
20,CCACCACG,0.0215
21,AACCTCAC,-0.0244
22,CTAAACCA,-0.126
23,ATATCATC,-0.154
24,ACGGATTA,0.122
25,AATGTGAA,-0.0324

row,Sequence,PBM E-score
1,TCGTACCA,0.488
2,ACTGCGCT,-0.0766
3,TCGCAAAA,0.296
4,GGCGATAC,0.0112
5,TCGCTCAA,0.289
6,AATGATGA,-0.117
7,CTGGGATA,-0.292
8,AGAATTTA,-0.211
9,TCGCGACA,0.127
10,CTTACCGA,0.21
11,CCAGGGGA,-0.169
12,AAGCATGA,-0.043
13,ATTGAGGA,-0.0867
14,AAGGGTGG,-0.0958
15,AGCCACCA,-0.291
16,ATATATAG,0.165
17,TCTAATAA,0.0842
18,ACGTATGC,0.114
19,ATTCATGC,0.102
20,GTTCGCTA,0.244
21,AGCAACGA,0.407
22,ACCCTGAA,-0.127
23,GATACGCA,0.231
24,GAGCAGGA,0.177
25,GGGGCACA,-0.216

row,Sequence,PBM E-score
1,GGCAAGAA,-0.0811
2,ACACAGTG,-0.0213
3,TAAGAACA,0.0615
4,GTTCTTTA,0.12
5,GATCAACC,0.00058
6,AATGGGCA,-0.0348
7,CAACTATC,0.145
8,GCCACAGA,-0.109
9,CGAAACCG,0.131
10,AAAAATGA,-0.0643
11,CAACAAGG,-0.0608
12,CTGTGCAC,-0.0356
13,ATAAGGAG,-0.0163
14,CTCCTGTC,-0.128
15,GCCGTTAC,0.069
16,CTCCATCA,-0.137
17,GGTGGCAC,-0.212
18,CCACCCAA,-0.226
19,AATAACGG,0.211
20,GACGATGC,-0.0114
21,TCGCGAGA,0.312
22,AGCTACGG,0.112
23,ACGCGCCA,0.0203
24,AGTCAAGC,-0.127
25,CGATGGTA,0.0935

row,Sequence,PBM E-score
1,ATTTTTAA,0.0854
2,CAAAGGAC,-0.284
3,GCAACACC,-0.178
4,CAAGATTC,-0.248
5,ATATATGC,0.133
6,AGATAGAC,0.0861
7,GAATCAGA,-0.0525
8,CTGCTTGA,-0.119
9,ACGCTTGG,-0.0179
10,AGCTAACT,-0.173
11,ACAGTATC,-0.0515
12,ATGAATAA,-0.115
13,GCTATGGA,-0.173
14,AGGGAACT,-0.00739
15,GACGGACC,0.00303
16,CGCGCATC,0.0785
17,ATCTGGGA,-0.227
18,CAAGGGCG,-0.197
19,ACGCAGAT,0.194
20,CTCCTTCC,-0.152
21,ACAAAGCC,-0.0199
22,AATGATTG,-0.0664
23,AGGTTCGA,0.027
24,TAAACACA,0.0299
25,AGGATCCG,-0.0606

row,Sequence,PBM E-score
1,ATGTCAAC,0.1
2,GGGTGACA,-0.2
3,AGTCGGAA,0.0822
4,TCCAGCAA,-0.0116
5,AGCAGAAT,-0.0881
6,CGGTTTAG,0.0175
7,AGGTTATC,-0.0786
8,CCGTCCAC,-0.041
9,TCCTGAAA,-0.00548
10,AATGGTGG,-0.241
11,ACTGTCGG,-0.12
12,AATGAAAA,-0.0312
13,ATCACGTC,-0.0576
14,AGACTGTA,0.106
15,GTGGCGCA,0.00871
16,CTACGATA,0.311
17,GCGTCGGA,0.22
18,CCTATTCC,-0.188
19,GCTCTAAA,-0.144
20,ATAAAAGA,0.153
21,AGATCGGG,-0.209
22,CTAGTCTA,0.0337
23,TCCCTGAA,-0.105
24,AAATTCGT,0.334
25,AACTCTAT,-0.151

row,Sequence,PBM E-score
1,ACTACTAA,-0.101
2,CCCGGTAA,-0.0616
3,AATCTTTA,-0.0885
4,ACCAGTTG,-0.0649
5,AACCAGGA,-0.17
6,CCTAGACC,-0.104
7,CTACCATA,-0.0505
8,GTGACCAC,-0.128
9,TAGCAAAA,-0.0683
10,CGTGTAAA,0.185
11,AAAAGCTC,-0.0238
12,CCTTGGTC,-0.0914
13,CTATAGAG,-0.372
14,CGCCACGC,-0.183
15,ACACGCAT,-0.195
16,CACCAAAC,0.139
17,ATGCGCTG,-0.127
18,ATTACTTG,-0.0442
19,CCCGTGGA,-0.198
20,CCCCCCAA,-0.278
21,GAGGAACA,-0.0447
22,CCGCCGTA,0.344
23,GCGCCTAC,-0.03
24,CTGTGACC,-0.185
25,CTGGATCC,0.0538

row,Sequence,PBM E-score
1,AGAAGGCG,-0.0893
2,GGGTGGGA,-0.0941
3,AATACGGT,0.21
4,GAACTCTC,-0.116
5,GATCCTTA,-0.0215
6,TATCTCCA,-0.135
7,CTATACAC,-0.176
8,AGAGGACG,-0.00996
9,CTACTTGC,-0.149
10,CCTGCCAA,-0.151
11,AACTAGCT,0.064
12,ATGCGTTC,0.21
13,ATCGGAGA,-0.154
14,GAACGGCC,0.31
15,AGTGCTAG,-0.166
16,ACTACCCC,-0.283
17,ACGATACA,0.31
18,GTGAACAA,0.198
19,AATCTGTC,-0.0394
20,ACGCTTGC,-0.0756
21,AAAGACGC,-0.118
22,ACCCCGAA,-0.0346
